System: GAL4 responsive reporter gene
Experiment: Rapamycin-induced expression of stably integrated GAL4-responsive SEAP reporter in transfected HT1080 B cells
Type: cell-based
Settings: cells expressing GF1 and a limited amount of RLS, 10 nM rapamycin

B1: L: E. coli lactose repressor, amino acids 46-360 (protein, UniProt P03023 46-360, looked up, fragment)
chain: NYIPNRVAQQLAGKQSLLIGVATSSLALHAPSQIVAAIKSRADQLGASVVVSMVERSGVEACKAAVHNLLAQRVSGLIINYPLDDQDAIAVEAACTNVPALFLDVSDQTPINSIIFSHEDGTRLGVEHLVALGHQQIALLAGPLSSVSARLRLAGWHKYLTRNQIQPIAEREGDWSAMSGFQQTMQMLNEGIVPTAMLVANDQMALGAMRAITESGLRVGADISVVGYDDTEDSSCYIPPLTTIKQDFRLLGQTSVDRLLQLSQGQAVKGNQLLPVSLVKRKTTLAPNTQTASPRALADSLMQLARQVSRLESGQ
effect of co-expressed excess protein on rapamycin-induced reporter gene expression: inhibits rapamycin-induced reporter gene expression

Reference: patent US6479653B1, “Compositions and method for regulation of transcription” (ARIAD Gene Therapeutics, Inc., priority 1997, dated 2002)
